This is one part of the list.

The experiment concerns the target T1, MBP-FoxP1dN (Mus musculus, UniProt P58462 326-579).
T1 sequence: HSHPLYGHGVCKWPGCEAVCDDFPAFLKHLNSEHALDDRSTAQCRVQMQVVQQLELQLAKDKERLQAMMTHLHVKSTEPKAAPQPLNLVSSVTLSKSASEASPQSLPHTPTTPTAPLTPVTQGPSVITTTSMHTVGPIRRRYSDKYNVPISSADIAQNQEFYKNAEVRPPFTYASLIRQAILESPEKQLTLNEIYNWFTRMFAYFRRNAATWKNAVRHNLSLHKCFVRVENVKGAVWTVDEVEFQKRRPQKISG
Nature of the experiment: PD-seq (MBP pull-down with sequencing); 20 mM Tris-HCl pH 7.5, 100 mM NaCl, 1.5 mM MgCl2, 0.4 uM protein, 0.1 uM dsDNA library, 30 min, room temperature, amylose pull-down; high values mean tight binding. Particulars: protein: recombinant; tags: His6-MBP; chain copies: 2; dsDNA, one strand shown. An outline of the steps:
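Binding is reads-per-million enrichment of pull-down over input, with replicates pooled. It comes from 30 min room-temperature incubation in Tris pH 7.5 buffer with NaCl and MgCl2 of 0.4 µM His6-MBP-tagged, N-terminally truncated mouse FoxP3 or FoxP1 fragment from E. coli with 0.1 µM Klenow-filled degenerate double-stranded DNA library, followed by amylose resin capture, three washes and Illumina sequencing of the released DNA.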
On to “GATGATTGTTCTCCCAGCTGATGAATTGTGGTCGTCGAGTAAACAAATTTTCCTAATCTTTCTGTTCAAGCGCCATCTAC”, for which the binding signal is 1.02 RPM ratio (pull-down/input).

Take “GATGATTGTTCTCCCAGCTGATGAATTAAGTAATTCGAGTAAACAAATTTTCCTAATCTTTCTGTTCAAGCGCCATCTAC”: the binding signal was 0.984 RPM ratio (pull-down/input).

As for “GATGATTGTTCTCCCAGCTGATGAATTCAAATAATCGAGTAAACAAATTTTCCTAATCTTTCTGTTCAAGCGCCATCTAC”, the binding signal was 1.29 RPM ratio (pull-down/input).

On to “GATGATTGTTCTCCCAGCTGATGAATTGGTTGCCTCGAGTAAACAAATTTTCCTAATCTTTCTGTTCAAGCGCCATCTAC”, for which the binding signal was 1.03 RPM ratio (pull-down/input).

Take “GATGATTGTTCTCCCAGCTGATGAATTGTCATTTTCGAGTAAACAAATTTTCCTAATCTTTCTGTTCAAGCGCCATCTAC”: the binding signal is 1.3 RPM ratio (pull-down/input).

Consider “GATGATTGTTCTCCCAGCTGATGAATTAACTCTTTCGAGTAAACAAATTTTCCTAATCTTTCTGTTCAAGCGCCATCTAC”, for which the binding signal was 0.876 RPM ratio (pull-down/input).

On to “GATGATTGTTCTCCCAGCTGATGAATTATAGACATCGAGTAAACAAATTTTCCTAATCTTTCTGTTCAAGCGCCATCTAC”, for which the binding signal was 1.21 RPM ratio (pull-down/input).

Take “GATGATTGTTCTCCCAGCTGATGAATTAACGGTCTCGAGTAAACAAATTTTCCTAATCTTTCTGTTCAAGCGCCATCTAC”: the binding signal was 0.785 RPM ratio (pull-down/input).

For the sequence “GATGATTGTTCTCCCAGCTGATGAATTCTGCTGCTCGAGTAAACAAATTTTCCTAATCTTTCTGTTCAAGCGCCATCTAC”, the binding signal was 0.817 RPM ratio (pull-down/input).

As for “GATGATTGTTCTCCCAGCTGATGAATTAATCGCCTCGAGTAAACAAATTTTCCTAATCTTTCTGTTCAAGCGCCATCTAC”, the binding signal is 0.916 RPM ratio (pull-down/input).

On to “GATGATTGTTCTCCCAGCTGATGAATTAGAAGTCTCGAGTAAACAAATTTTCCTAATCTTTCTGTTCAAGCGCCATCTAC”, for which the binding signal was 0.866 RPM ratio (pull-down/input).

Consider “GATGATTGTTCTCCCAGCTGATGAATTCGAGCGCTCGAGTAAACAAATTTTCCTAATCTTTCTGTTCAAGCGCCATCTAC”, for which the binding signal is 0.761 RPM ratio (pull-down/input).

Regarding “GATGATTGTTCTCCCAGCTGATGAATTGACAACCTCGAGTAAACAAATTTTCCTAATCTTTCTGTTCAAGCGCCATCTAC”, the binding signal was 1.19 RPM ratio (pull-down/input).

As to “GATGATTGTTCTCCCAGCTGATGAATTCATGCCTTCGAGTAAACAAATTTTCCTAATCTTTCTGTTCAAGCGCCATCTAC”, the binding signal was 0.948 RPM ratio (pull-down/input).

As to “GATGATTGTTCTCCCAGCTGATGAATTCTTACTCTCGAGTAAACAAATTTTCCTAATCTTTCTGTTCAAGCGCCATCTAC”, the binding signal is 0.863 RPM ratio (pull-down/input).

“GATGATTGTTCTCCCAGCTGATGAATTCCTACAATCGAGTAAACAAATTTTCCTAATCTTTCTGTTCAAGCGCCATCTAC”: the binding signal is 1.13 RPM ratio (pull-down/input).

As to “GATGATTGTTCTCCCAGCTGATGAATTCACATCCTCGAGTAAACAAATTTTCCTAATCTTTCTGTTCAAGCGCCATCTAC”, the binding signal is 0.852 RPM ratio (pull-down/input).

Turning to “GATGATTGTTCTCCCAGCTGATGAATTGTGGGCGTCGAGTAAACAAATTTTCCTAATCTTTCTGTTCAAGCGCCATCTAC”, the binding signal is 0.998 RPM ratio (pull-down/input).

“GATGATTGTTCTCCCAGCTGATGAATTGGGAGCTTCGAGTAAACAAATTTTCCTAATCTTTCTGTTCAAGCGCCATCTAC”: the binding signal is 0.806 RPM ratio (pull-down/input).

Regarding “GATGATTGTTCTCCCAGCTGATGAATTATGCAAGTCGAGTAAACAAATTTTCCTAATCTTTCTGTTCAAGCGCCATCTAC”, the binding signal is 1.06 RPM ratio (pull-down/input).

As to “GATGATTGTTCTCCCAGCTGATGAATTTCGCTAATCGAGTAAACAAATTTTCCTAATCTTTCTGTTCAAGCGCCATCTAC”, the binding signal is 0.968 RPM ratio (pull-down/input).

Take “GATGATTGTTCTCCCAGCTGATGAATTACTTGTTTCGAGTAAACAAATTTTCCTAATCTTTCTGTTCAAGCGCCATCTAC”: the binding signal was 1.56 RPM ratio (pull-down/input).

As for “GATGATTGTTCTCCCAGCTGATGAATTATGGCGGTCGAGTAAACAAATTTTCCTAATCTTTCTGTTCAAGCGCCATCTAC”, the binding signal is 0.903 RPM ratio (pull-down/input).

With “GATGATTGTTCTCCCAGCTGATGAATTGACATCCTCGAGTAAACAAATTTTCCTAATCTTTCTGTTCAAGCGCCATCTAC”, the binding signal is 1.19 RPM ratio (pull-down/input).

As to “GATGATTGTTCTCCCAGCTGATGAATTGGCACAGTCGAGTAAACAAATTTTCCTAATCTTTCTGTTCAAGCGCCATCTAC”, the binding signal was 0.849 RPM ratio (pull-down/input).

“GATGATTGTTCTCCCAGCTGATGAATTGATCTCGTCGAGTAAACAAATTTTCCTAATCTTTCTGTTCAAGCGCCATCTAC”: the binding signal is 0.986 RPM ratio (pull-down/input).

For “GATGATTGTTCTCCCAGCTGATGAATTTCTAAAATCGAGTAAACAAATTTTCCTAATCTTTCTGTTCAAGCGCCATCTAC”, the binding signal was 1.2 RPM ratio (pull-down/input).

Consider “GATGATTGTTCTCCCAGCTGATGAATTCATCCGATCGAGTAAACAAATTTTCCTAATCTTTCTGTTCAAGCGCCATCTAC”, for which the binding signal is 0.817 RPM ratio (pull-down/input).

In the case of “GATGATTGTTCTCCCAGCTGATGAATTGACCGAATCGAGTAAACAAATTTTCCTAATCTTTCTGTTCAAGCGCCATCTAC”, the binding signal is 1.06 RPM ratio (pull-down/input).

As to “GATGATTGTTCTCCCAGCTGATGAATTCCTTGCGTCGAGTAAACAAATTTTCCTAATCTTTCTGTTCAAGCGCCATCTAC”, the binding signal was 0.884 RPM ratio (pull-down/input).

Turning to “GATGATTGTTCTCCCAGCTGATGAATTGTACCATTCGAGTAAACAAATTTTCCTAATCTTTCTGTTCAAGCGCCATCTAC”, the binding signal is 1.07 RPM ratio (pull-down/input).
